# Article PMC4336329 (PLoS ONE, 2015)
# Among all 310,000 compounds or so, about 2,200 (0.71%) showed an effect of 50% or more. The effect is printed as a negative number. The list shows a part of the results.
# Target: human ether-à-go-go-related gene (hERG) potassium channel (human, UniProt Q12809)
# Test: primary screen, population patch clamp on CHO cells stably expressing hERG
# human ether-à-go-go-related gene (hERG) potassium channel, sequence (Q12809 whole entry, looked up): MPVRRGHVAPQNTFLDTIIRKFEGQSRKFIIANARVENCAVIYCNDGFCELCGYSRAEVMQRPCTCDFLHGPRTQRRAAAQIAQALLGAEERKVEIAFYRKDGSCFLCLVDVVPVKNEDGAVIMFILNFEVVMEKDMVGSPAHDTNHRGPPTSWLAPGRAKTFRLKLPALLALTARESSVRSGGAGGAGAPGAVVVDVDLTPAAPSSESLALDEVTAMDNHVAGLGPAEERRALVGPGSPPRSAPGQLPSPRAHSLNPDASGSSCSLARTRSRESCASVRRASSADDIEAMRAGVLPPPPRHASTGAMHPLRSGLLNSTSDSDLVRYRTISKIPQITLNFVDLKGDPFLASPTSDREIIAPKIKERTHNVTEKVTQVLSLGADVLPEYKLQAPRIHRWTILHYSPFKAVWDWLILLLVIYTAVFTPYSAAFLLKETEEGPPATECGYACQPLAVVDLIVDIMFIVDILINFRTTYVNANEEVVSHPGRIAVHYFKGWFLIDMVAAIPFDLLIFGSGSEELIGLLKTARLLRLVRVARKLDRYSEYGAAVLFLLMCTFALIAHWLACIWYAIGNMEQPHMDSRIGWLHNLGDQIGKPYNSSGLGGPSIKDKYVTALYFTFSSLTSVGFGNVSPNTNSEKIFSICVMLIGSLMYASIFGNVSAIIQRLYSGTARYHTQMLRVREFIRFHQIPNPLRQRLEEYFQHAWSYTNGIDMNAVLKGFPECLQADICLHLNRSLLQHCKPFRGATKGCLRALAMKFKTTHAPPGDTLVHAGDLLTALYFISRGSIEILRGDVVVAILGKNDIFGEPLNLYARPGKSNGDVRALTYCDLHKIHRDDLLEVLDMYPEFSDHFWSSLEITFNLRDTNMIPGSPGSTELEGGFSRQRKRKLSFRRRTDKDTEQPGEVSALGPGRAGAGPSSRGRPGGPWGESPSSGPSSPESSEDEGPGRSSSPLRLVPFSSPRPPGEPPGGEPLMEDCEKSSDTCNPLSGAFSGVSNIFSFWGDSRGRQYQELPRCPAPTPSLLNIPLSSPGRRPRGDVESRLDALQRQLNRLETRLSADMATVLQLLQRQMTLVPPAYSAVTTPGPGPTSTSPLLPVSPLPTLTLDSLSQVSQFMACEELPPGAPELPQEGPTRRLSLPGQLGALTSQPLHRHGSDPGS
row,SMILES,"hERG current change (%, negative = inhibition) at 1uM"
1,CC(C)Cn1c(N)c(C(=O)COC(=O)C2CC(=O)N(c3ccc4c(c3)OCCO4)C2)c(=O)n(C)c1=O (stereo not shown),-18.4%
2,COc1ccc(NC(=O)CSc2nnc(-c3cccnc3)s2)cc1,7.86%
3,Cn1nnnc1SCC(=O)NCc1cccc(C(=O)O)c1,-8.8%
4,CCCCCc1ccc(-c2cn(CCc3c[nH]c4ccccc34)nn2)cc1,1.43%
5,COc1ccc(NC(=O)c2cc(Br)c(Br)s2)cn1,-0.0288%
6,Cc1cccc(N(NC(=O)C(C)(C)O)C(=O)c2ccccc2)c1,12.4%
7,C=C(C)CN(CC)C(=O)CCc1nnc(CCc2c[nH]c3ccccc23)o1,8.05%
8,CCOC(=O)C1(O)CC(C)=NN1C(=O)c1cccc(Cl)c1 (stereo not shown),14.6%
9,Cc1cc(NC(=O)CSCC(=O)Nc2cc(C(F)(F)F)ccc2N2CCOCC2)no1,12.4%
10,CC(C)C(NC(=O)Cc1ccccc1[N+](=O)[O-])C(C)C,6.36%
11,Cc1cc(C)c(C)c(S(=O)(=O)Nc2ccc(C(N)=O)cc2)c1C,13.9%
12,CC(C)C(NC(=O)C1CCC(C(C)(C)C)CC1)C(=O)NCc1cccnc1 (stereo not shown),9.78%
13,Cc1cc(C)nc(Oc2ccc(Br)cc2)n1,17.7%
14,CC(C)(C)c1ccc(NC(=O)CNC2CCCc3ccccc32)cc1.Cl (stereo not shown),11.1%
15,Cc1nnc(Sc2cc(C(=O)NCc3ccco3)c3ccccc3n2)s1,2%
16,O=C(O)CC(CC(=O)Nc1ccc(N2CCOCC2)cc1)c1ccccc1 (stereo not shown),15.2%
17,Cc1ccc(N=Nc2ccc(C)cc2NC(=O)Nc2ccccc2F)cc1,9.9%
18,CC12CN(C(=O)c3ccccc3)C3(C#N)CC1CCC23C (stereo not shown),7.43%
19,COc1ccc(C)cc1Cn1c(S(C)(=O)=O)nc2ccccc21,9.02%
20,COc1cc(-c2nc(-c3ccccc3)c(-c3cc([N+](=O)[O-])ccc3C)[nH]2)cc(OC)c1OC,9.09%
21,Nc1ccc(-c2c3ccccc3nc3ccccc23)cc1,13.4%
22,CS(=O)(=O)N(Cc1ccc(Cl)cc1)c1ccc(C(=O)NCC2CCCO2)cc1 (stereo not shown),-3.84%

row,SMILES,"hERG current change (%, negative = inhibition) at 1uM"
1,CCN(CC)C(=O)/C(=C\c1ccncc1)NC(=O)c1ccccc1,1.54%
2,CC(=O)c1sc(-c2ccc(Cl)cc2)nc1C,9.05%
3,COc1ccc(NC2=CC(c3ccccc3)N(c3ccc(OC)cc3)C2=O)cc1 (stereo not shown),11.9%
4,Cc1ccccc1OCCC(=O)N1CCN(S(=O)(=O)c2ccc(F)cc2)CC1,9.86%
5,C=CCn1c(CCc2ccc(OC(C)C)cc2)n[nH]c1=S,11.1%
6,CCOC(=O)[C@H]1[C@H]2COc3ccc(C)cc3[C@@H]2N2C(=O)c3cc(F)ccc3NC(=O)[C@@]12C,8.13%
7,Cc1nc2c(C(=O)NCCc3ccccc3Cl)c[nH]n2c(=O)c1Cl,2.12%
8,Cc1cc(C(=O)COC(=O)c2ccc(Br)o2)c(C)n1C,18.4%
9,COc1ccc(NC(=O)CSc2nc3ncccc3[nH]2)cc1OC,8.67%
10,COc1ccc(C)cc1NC(=O)CSc1nnc(-c2cc(C)[nH]n2)n1N,23.6%
11,COc1ccc2c(CC(=O)OCC(=O)N3CCc4ccccc43)coc2c1,5.6%
12,CCOC(=O)c1[nH]c2cc3c(cc2c1NC(=O)CN1CC(C)CC(C)C1)OCO3 (stereo not shown),8.79%
13,CC(c1ccccc1)c1nnc(NC(=O)Nc2ccccc2F)s1 (stereo not shown),11.8%
14,O=C(/C=C/c1ccccc1)c1ccc2c(c1)OCCCCO2,15.4%
15,CCOC(=O)c1ccccc1NC(=O)C1CSC2(C)CCC(=O)N12 (stereo not shown),7.69%
16,COc1cc(NC(=S)NC(=O)c2ccc(C)cc2C)ccc1NC(=O)c1cccs1,9.74%
17,Nc1c(Cl)cc(C2=NCCn3nc4ccccc4c32)cc1Cl,13.6%
18,CCC(CC)NCc1ccc(OC)cc1OC,-4.09%
19,COc1ccccc1C(=O)N1CCN=C1SCc1cccnc1,10.7%
20,CN(CC(=O)Nc1cccc(F)c1)C(=O)CC1CCCCC1,4.32%
21,CCOc1ccc(-c2nnc(SCC(=O)NC3CC3)o2)cc1,6.07%
22,COc1cccc(N2CCN(S(=O)(=O)c3cccc4cccnc34)CC2)c1,9.44%

row,SMILES,"hERG current change (%, negative = inhibition) at 1uM"
1,CCc1cc(=O)oc2c(C)c(OCC(=O)N3CCC[C@@H]3C(=O)O)ccc12,13.9%
2,CCC(=O)c1ccc(OCC(O)Cn2cnc3ccccc32)cc1 (stereo not shown),-5.18%
3,Cc1ccccc1OCc1ccc(C(=O)N2CC(C)OC(C)C2)o1 (stereo not shown),11.4%
4,COc1ccc(Cc2nc(C(=O)Nc3ccc(Cl)cc3)cs2)cc1,3.02%
5,COc1cc(OC)cc(C(=O)N2CCCC(c3nc(-c4ccc(C)o4)no3)C2)c1 (stereo not shown),16.3%
6,FC(F)(F)c1cc(-c2ccco2)nc(-n2nnc3ccccc32)n1,-4.57%
7,C=CCNc1ncnc2c1ncn2C1OC(CO)C(O)C1O (stereo not shown),18.5%
8,NC(=O)CCCn1c(C(=O)c2cc(Cl)c(N)c(Cl)c2)c2ccc([N+](=O)[O-])cc2[n+]1[O-],3.66%
9,CC(=O)n1cc([C@@H]2C=C(C(=O)Nc3ccccc3)O[C@H](OCCCCO)C2)c2ccccc21,-2.82%
10,COc1cc(-c2csc(C)n2)ccc1O,12.6%
11,O=C(NNC(=O)C1C2C=CC(C2)C1C(=O)O)c1cc(Cl)ccc1O (stereo not shown),14.2%
12,COc1ccc(NC(=O)CN2C(=O)C(c3ccccc3)=NC23CCCCCC3)cc1OC,3.61%
13,Nc1ccccc1N=Cc1ccc(-c2cccc(Cl)c2)o1,10.1%
14,COc1ccccc1N1CCN(C(=O)Oc2ccccc2)CC1,6.96%
15,COc1ccc([N+](=O)[O-])cc1NC(=O)C(C)OC(=O)c1ccccc1C(=O)c1ccc(Cl)cc1 (stereo not shown),9.96%
16,O=C(COc1ccccc1)NNC(=O)c1ccc(Cl)cc1,7.74%
17,CC(=O)n1cc(/C=C2/N=C(c3ccccc3)OC2=O)c2ccccc21,9.73%
18,COc1ccc(O)c(C(=O)c2cnc3c(c2)CN(C)C(=O)N3)c1,11.3%
19,CC1(C(=O)OCC(=O)NNC(=O)COc2ccc(Cl)cc2)CC1(Cl)Cl (stereo not shown),8.15%
20,NS(=O)(=O)c1ccc(CCNC(=O)CSc2ccc(Cl)cc2)cc1,5.9%
21,CC(C)Cn1c(N)c(C(=O)COC(=O)c2ccc(F)cc2)c(=O)n(C)c1=O,2.75%
22,Cc1cccc(C)c1NC(=O)c1ccc([N+](=O)[O-])s1,5.27%

row,SMILES,"hERG current change (%, negative = inhibition) at 1uM"
1,O=C(NC1CCCc2ccccc21)c1cc(S(=O)(=O)N2CCOCC2)ccc1F (stereo not shown),5.39%
2,Cn1nc(Cc2n[nH]c(=S)n2C)c2ccccc2c1=O,13.9%
3,COc1ccc(-c2c([C@H]3[C@H]4C=CC[C@@H](C)[C@@H]4C(=O)N3Cc3ccccc3)ccc3ccccc23)cc1,18.3%
4,COc1ccc(CN2CCN(C(=O)COc3ccc4ccccc4c3)CC2)c(OC)c1,9.87%
5,COC(=O)CN(c1cc([N+](=O)[O-])ccc1OC)S(C)(=O)=O,11.9%
6,Cc1ccccc1OC(C)C(=O)Nc1ccc2c(c1)OCCO2 (stereo not shown),-9.77%
7,CC(=O)c1ccc(N2CCN(C(=O)[C@H](C)NC(=O)c3ccccc3Cl)CC2)cc1,4.45%
8,Cc1cc(N2CCCc3ccccc32)n2ncnc2n1,11.9%
9,COc1ccccc1CNC(=O)COC(=O)Cn1cnc2ccccc21,12.5%
10,CCOC(=O)C1CCCN(C(=O)C2CCN(S(=O)(=O)c3ccc4ccccc4c3)CC2)C1 (stereo not shown),15.6%
11,CCOC(=O)C1CCCN(CC(=O)c2c[nH]c3ccc(C)cc23)C1 (stereo not shown),2.76%
12,CC(=O)Nc1cccc(NC(=O)C2CCCN2C(=O)Nc2ccccc2C)c1 (stereo not shown),5.13%
13,COc1ccccc1N1CCN(C2CCCN(Cc3ccccc3OCCO)C2)CC1 (stereo not shown),8.21%
14,Cn1cc(SCC(=O)NCc2ccc3c(c2)OCO3)c2ccccc21,5.12%
15,CCOC(=O)c1c(NC(=O)CSc2ncccn2)sc(C(=O)NC)c1C,-2.96%
16,O=C(CCN1C(=O)[C@H]2CC=CC[C@H]2C1=O)NCc1nc(-c2ccccc2)no1,9.55%
17,CC(=O)c1cccc(OCCN2C(=O)NC(C)(C)C2=O)c1,5.11%
18,COC(=O)c1ccc(N2CCN(S(=O)(=O)c3ccc4ccccc4c3)CC2)c([N+](=O)[O-])c1,18.7%
19,N/C(Cc1cccs1)=N\OC(=O)COc1ccc(Br)cc1Cl,8.6%
20,CN(C(=S)NC(=O)/C=C/c1ccc(F)cc1)C1CCCCC1,12.5%
21,CCCC1CCC(c2ccc(C(N)=O)cc2)CC1 (stereo not shown),5.21%
22,O=C(Nc1cccnc1Cl)c1cc(-c2ccco2)on1,17.4%
